Data published in PubChem BioAssay AID1159614 (National Center for Advancing Translational Sciences (NCATS), 2016).
Out of some 45,000 compounds screened, about 65 (0.1%) were called active. Calls follow the shape of the dose curve; as a rule, active = well fitted activation curve with a large enough effect; inconclusive = small, poorly fitted or top-dose-only effect; inactive = no such curve, though single readings can be large or run the other way. This is one part of the list.

target: Galactocerebrosidase (Homo sapiens) (UniProt P54803); assay: A Novel Cell-Based Assay to Identify Small Molecules for B -Galactocerebrosidase; settings: 145M-Twi-hGALC-G270D cells, HMU-beta-Gal fluorescence, 48 h; series mostly up to 57.5 µM; activation: at the top concentration; also: 0% is about no effect; nearly all actives have a fitted effect of over 65% in size
Procedure, shortened: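 qHTS, 1536-well; 145M-Twi-hGALC-G270D cells (WT line also made) in DMEM/F12 + 10% FBS; compound incubation on live cells; HMU-β-gal 0.1 mM final, pH 5.2, NaTC; carbonate stop; fluorescence increase = enhanced residual activity.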

UniProt P54803, sequence (P54803 whole entry, looked up): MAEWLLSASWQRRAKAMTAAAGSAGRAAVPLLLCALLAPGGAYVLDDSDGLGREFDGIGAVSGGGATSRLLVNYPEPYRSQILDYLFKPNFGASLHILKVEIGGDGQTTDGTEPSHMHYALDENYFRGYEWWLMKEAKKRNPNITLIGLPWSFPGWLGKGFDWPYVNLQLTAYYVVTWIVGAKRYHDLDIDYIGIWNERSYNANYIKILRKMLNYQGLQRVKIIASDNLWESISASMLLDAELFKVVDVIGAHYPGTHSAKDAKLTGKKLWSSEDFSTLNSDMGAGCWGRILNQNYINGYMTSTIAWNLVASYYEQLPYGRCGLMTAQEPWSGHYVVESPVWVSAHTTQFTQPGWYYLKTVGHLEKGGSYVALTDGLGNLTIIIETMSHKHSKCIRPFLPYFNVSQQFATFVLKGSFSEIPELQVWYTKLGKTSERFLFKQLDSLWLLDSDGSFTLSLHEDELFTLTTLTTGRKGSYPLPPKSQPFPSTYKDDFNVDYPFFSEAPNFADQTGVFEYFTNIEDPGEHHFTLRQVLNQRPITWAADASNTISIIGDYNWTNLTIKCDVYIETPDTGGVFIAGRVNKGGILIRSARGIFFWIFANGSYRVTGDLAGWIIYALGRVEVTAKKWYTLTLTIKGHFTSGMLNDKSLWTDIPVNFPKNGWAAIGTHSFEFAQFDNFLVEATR

activation, inactive:
COc1ccccc1N1CCN(CC(O)COc2cc(OC)c(OC)c(OC)c2)CC1 (stereo not drawn) -14.1%
CCCNC(=O)CSc1nc(-c2ccc(OC)cc2)cc(C(F)(F)F)n1 0.224%
Cc1ccc(C(=O)C(C)CN2CCCCC2)cc1 (stereo not drawn) -5.42%
CN(C)c1ccc(NC(=O)CSC2=Nc3ccccc3C3=NC(CCC(=O)NCc4cccs4)C(=O)N23)cc1 (stereo not drawn) -18.9%
COc1ccc2c(CNCc3cccs3)c(C(=O)O)n(Cc3ccccc3F)c2c1 -13.6%
O=C(NCc1ccccc1)c1ccc2oc(=O)n(Cc3ccccc3)c2c1 2.5%
COc1ccc(CC(=O)N2CCc3cc(OC)c(OC)cc3C2COc2ccc(F)cc2)cc1OC (stereo not drawn) -13.6%
CCOC(=O)COc1ccc(C)cc1C(=O)c1ccn2nc(-c3ccc(F)cc3)cc2n1 -10.2%
CC1CCN(C(=O)c2cccc(NC(=O)c3nsc4ccccc34)c2)CC1 -6.66%
COc1cccc(C(=O)Nc2cccc(C(=O)OCc3cc(=O)n4c(C)csc4n3)c2)c1 -30.9%
Cn1c(SCC(=O)Nc2nc3ccccc3s2)ncc(C(=O)Nc2ccc(F)cc2)c1=O 0.0643%
COCCNC(=O)c1ccc2c(c1)N=C(C)c1cc(C)ccc1S2 -15.3%
NS(=O)(=O)c1ccc2nc(NC(=O)COc3ccc(Cl)cc3Cl)sc2c1 -10.7%
Cc1c(C(=O)NC(C)c2ccccc2)sc2nc3n(c(=O)c12)CCCC3 (stereo not drawn) -5.66%
COc1ccc(N2CC(C(=O)NCc3nnnn3-c3ccc(C)c(C)c3)CC2=O)cc1 (stereo not drawn) -8%
O=C(Cn1c(SCCOc2ccc(Cl)cc2)nc2ccccc21)N1CCCCC1 -31.7%
COc1ccc(-c2nnc3n2N(C(C)=O)C(c2ccc(Cl)c(Cl)c2)=C(C(C)=O)S3)cc1 -4.72%
COc1ccccc1NC(=O)Cn1c(=O)c(CNc2ccc(C)cc2)cc2cc3c(cc21)OCCO3 -18.9%
Cc1cccc(N2C(=O)CSC23C(=O)N(CC(=O)NCc2ccccc2Cl)c2ccccc23)c1 (stereo not drawn) -18.4%
COc1ccc(CCNC(=O)C(=O)NCC(c2ccco2)S(=O)(=O)c2ccccc2)cc1 (stereo not drawn) -5.94%
COc1cccc(C2=CC(c3cc(Br)ccc3F)n3nnnc3N2)c1 (stereo not drawn) -4.97%
COc1ccc2cc3cc(C(=O)N4CCN(c5ccccc5F)CC4)oc3nc2c1 -17.1%
O=c1[nH]c(=O)n(C2CCCCC2)c(O)c1C1=Nc2ccccc2SC(c2ccc(Cl)cc2)C1 (stereo not drawn) -10.4%
COc1ccc(-c2noc(-c3ccc(N4CCN(c5ccccc5)CC4)c([N+](=O)[O-])c3)n2)cc1 -1.11%
CC(CNC(=O)CN1C(=O)c2cccnc2Oc2ccc(Cl)cc21)c1ccccc1 (stereo not drawn) -11.6%
COC(=O)c1ccc(NC(=O)N2CCN(Cc3cc(=O)n4nc(-c5ccc(C)cc5)sc4n3)CC2)cc1 -7.6%
Cc1cccc(NC(=O)c2ccc3c(c2)CCN3S(=O)(=O)c2ccccc2)c1C -23.7%
COc1cccc(OC)c1C(=O)Nc1nc2c(s1)CCc1ccccc1-2 -12.2%
Cc1nc2c(c(C)c1CCC(=O)NCc1ccc(Cl)cc1)c(=O)n(C)c(=O)n2C -12.5%
COc1ccc(NC(=O)CCNS(=O)(=O)c2cccc3nsnc23)cc1Cl -7.02%
Cc1ccc(/C=C/c2onc(C)c2S(=O)(=O)N2CCC(C(=O)N3CCN(c4ccccc4F)CC3)CC2)cc1 10.6%
Cc1cccc(-n2c(C)nc3cc(C(=O)NCCC4=CCCCC4)ccc32)c1 -3.33%
O=C(NCc1nc2ccccc2[nH]1)c1c(F)cccc1F -7.25%
O=C(CSc1nc(Nc2ccc(F)cc2)c2ccccc2n1)c1ccc(F)cc1 -20.4%
CCCS(=O)(=O)N1CC(=O)N(c2ccc(C)cc2)C(C)(C(=O)NC2CCCCCC2)C1 (stereo not drawn) 5.02%
O=C(NCCc1ccccc1Cl)c1ccc2c(=O)n(-c3ccccc3)c(=O)[nH]c2c1 -19.2%
CCOc1ccccc1CN1CCc2nc(Nc3ccc4c(c3)OCCO4)ncc2C1 -27.5%
COc1ccc(CCNC(=O)c2cc3sccc3n2Cc2ccc(Cl)cc2)cc1OC -6.87%
Cc1oc2ncn(CC(C)C)c(=O)c2c1C(=O)NC(C)c1ccccc1 (stereo not drawn) -25.6%
CCOc1ccc(NC(=O)Cn2c(=O)c(CNc3ccc(CC)cc3)cc3cc4c(cc32)OCO4)cc1 21.4%
Cc1ccc(CNc2ncnc3onc(-c4ccc(F)cc4)c23)cc1 18.3%
Cc1cc(C)c2nc(NC(=O)c3ccc(S(=O)(=O)N4CCc5ccccc54)cc3)sc2c1 -5.56%
CCN(C(=O)Cn1cnc2onc(-c3ccc(F)cc3)c2c1=O)c1ccc(OC)cc1 -29.4%
O=C(Cn1c(=O)n(Cc2ccc3c(c2)OCO3)c(=O)c2oc3ccccc3c21)Nc1ccccc1F 3.04%
Cc1cccc(-n2ccnc2SCC(=O)Nc2cccc3ccccc23)c1C -34.3%
COc1cc(OC)c(NC(=O)N2CCCn3nc(C)cc32)cc1Cl -8.93%
COc1ccc(C(=O)Nc2ccc3c(c2)CCCN3C(=O)c2cccs2)c(OC)c1 -11.5%
COCCn1c(C)cc(O)c(C(c2ccccc2)N2CCN(c3ccccc3)CC2)c1=O (stereo not drawn) -0.819%
COc1ccc(-c2nnc(SCC(=O)NC3CCCCC3)nc2-c2ccc(OC)cc2)cc1 -20.5%
Cc1sc2ncn(CC(=O)N3CCN(c4ccc(Cl)cc4)CC3)c(=O)c2c1S(=O)(=O)N1CCN(c2ncccn2)CC1 -13.3%
Cc1cccn2c(=O)c3cc(C(=O)NCc4cccnc4)c(=N)n(CCCO)c3nc12 -13.6%
CC(C)(C)c1ccc(C(=O)NC2(C(F)(F)F)C(=O)Nc3c2c(=O)[nH]c(=O)n3-c2ccccc2)cc1 (stereo not drawn) -6.79%
O=C(NCc1ccccc1)c1nc(S(=O)(=O)Cc2ccccc2)ncc1Cl -17.1%
CN1CCc2nc3sc(C(=O)Nc4ccccc4OC(F)(F)F)c(N)c3cc2C1 -27.8%
COC(=O)c1c(C)oc2ccc(N(C(=O)c3ccncc3)S(=O)(=O)c3c(C)cc(C)cc3C)cc12 -23.9%
CC1=Nc2cc(C(=O)NCCc3ccccc3)ccc2Sc2c(C)ccc(C)c21 -4.6%
Cc1ccc(Cn2c(SCC(=O)C(C)(C)C)nc3ccsc3c2=O)cc1 -16%
CCOC(=O)c1c(C)[nH]c(C)c1S(=O)(=O)N(C)CC(=O)Nc1ccc(C)c(N(C)C)c1 -4.84%
CCOC(=O)c1cc2c(=O)n3ccccc3nc2n(Cc2ccco2)c1=NC(=O)c1c(F)cccc1Cl -34.6%
COc1ccc(C)cc1NC(=O)c1ccc(=O)n(Cc2ccccc2)c1 -9.62%
CC(C)CCNC(=O)C1CCN(c2nc3ccc(Cl)cc3[nH]2)CC1 0.386%
O=C(Nc1ccc2nc(SCC(=O)N3CCCC3)sc2c1)c1cccc(Cl)c1 -18.5%
COc1ccc(NC(=O)Cn2c(=O)n(-c3ccc(C)cc3)c(=O)c3c2cnn3C)cc1 -8.15%
CCN1CCCC1=O -18.8%
COC(=O)c1cc2occc2n1Cc1nc(-c2cccc(Cl)c2)oc1C -13%
COc1ccc(OC)c(CCNC(=O)c2cnn(-c3ccccc3Cl)c2C2CCN(C(=O)OC(C)(C)C)CC2)c1 -11%
COc1ccc(Nc2nc3c(S(=O)(=O)c4ccccc4)nnn3c3ccsc23)cc1OC 16.7%
Cc1cccc(C(=O)Nc2c(C(=O)NCc3ccc(Cl)cc3)sc3nc(C)cc(C)c23)c1 -38%
CC(=O)Nc1ccc(S(=O)(=O)Nc2cc(-c3cn4ccccc4n3)ccc2C)cc1 -18.7%
COc1ccc(CCNC(=O)c2cn(C)c3ccc(S(=O)(=O)N(C)C4CCCCC4)cc3c2=O)cc1OC 17.4%
COc1ccc(/C=C/c2nc(C#N)c(NCCc3ccccc3)o2)cc1OC 29.8%
COc1ccc(NC(=O)c2c(C)oc3ccc(O)c(CN4CCCCCC4)c23)cc1Cl -11.1%
Cc1ccc(C)c(Cn2c(=O)cc(C)c3c(C)nn(-c4cccc(F)c4)c32)c1 -18.7%
COc1ccc(NC(=O)c2cnc(Nc3ccc(C)c(Cl)c3)c3ccccc23)cc1OC -5.88%
COc1ccc(-c2nsc(NC(=O)C(C)Oc3ccc(Cl)c(C)c3)n2)cc1 (stereo not drawn) -4.87%
COc1cccc(-n2c(=O)c3c(C)c(C)sc3n(CC(=O)NCc3ccccc3)c2=O)c1 -1.51%
CCOc1ccccc1N1CC(c2nc3ccccc3n2Cc2c(C)cc(C)cc2C)CC1=O (stereo not drawn) 4.81%
COc1ccc(NC(=O)c2ccc3c(SCC(=O)O)c4c(nc3c2)CCC4)c(OC)c1 -12.3%
COc1ccc(-c2nc(SCc3cc(=O)c4cc(C)ccc4[nH]3)n[nH]2)cc1 -4.7%
COc1ccc(-c2nc(C)c(CCNC(=O)C(=O)Nc3cc(C)cc(C)c3)s2)cc1OC -13.1%
CCCN(CCC)CCNC(=O)c1ccc2c(c1)NC(=O)C(CS(=O)(=O)Cc1cccc(Br)c1)N2 (stereo not drawn) -4.91%
Cc1sc2ncn(CC(=O)N3CCN(c4cccc(Cl)c4)CC3)c(=O)c2c1S(=O)(=O)N1CCN(c2ncccn2)CC1 8.07%
COc1ccccc1N1CCN(S(=O)(=O)CCNC(=O)COc2ccc(C(C)C)cc2)CC1 -11.8%
Cc1cccc(N2CCN(C(=O)c3cc4c(=O)n(C)c5ccccc5c4s3)CC2C)c1 (stereo not drawn) -8.38%
CC(=O)N1c2ccc(S(=O)(=O)NCC3CCC(C(=O)Nc4cccc(C)c4C)CC3)cc2CC1C (stereo not drawn) -18.2%
Cc1ccccc1C(=O)Nc1c(C)nc(Nc2ccccc2)nc1Nc1ccccc1 -9.69%
CCOCCCNC(=O)C(c1ccc(OC)cc1)N(Cc1ccc2c(c1)OCO2)C(=O)c1ccccc1O (stereo not drawn) -16.4%
Cc1ccc(NC(=O)Cn2nc(C)n3cccc3c2=O)c(C)c1 -23.5%
CN(C)CCn1c2c(c(SCC(=O)Nc3ccc(F)cc3F)nc1=O)CCC2 -18.6%
CCCCn1cc(S(=O)(=O)c2cccc(C)c2)c(=O)c2cc(F)c(N3CCOCC3)cc21 -6.54%
O=C(NCCc1ccccc1)c1ccc(CSc2nc3ccncc3n2Cc2ccc(F)cc2)cc1 -9.88%
CCOc1ccc(C(=O)Nc2cccc(OCc3cc(=O)n4cc(C)sc4n3)c2)cc1 -10.9%
CCCCOC(=O)c1cccc(NC(=O)c2cc3ccccc3o2)c1 -47.8%
